Patent US20230135471A1 (INTEGRATED DNA TECHNOLOGIES, published 2023)

Tests used:
[1] = molecular target: MBP tagged 53BP1 fragment (a.a. 1484-1603); test: BLI, fold change Ka of Ubv/Ka of CM1
[2] = molecular target: MBP tagged 53BP1 fragment (a.a. 1484-1603); test: BLI, fold change Ka of Ubv/Ka of CM1; remark: listed apart in the source
[3] = molecular target: MBP tagged 53BP1 fragment (a.a. 1484-1603); test: BLI, KA (M-1), log axis
[4] = molecular target: MBP tagged 53BP1 fragment (a.a. 1484-1603); test: BLI, 2 µM 53BP1 fragment
[5] = molecular target: MBP tagged 53BP1 fragment (a.a. 1484-1603); test: BLI, Ubv on Ni-NTA tip, 1:1 global fit
[6] = molecular target: MBP tagged 53BP1 fragment (a.a. 1484-1603); test: BLI, 1 µM 53BP1 fragment
[7] = molecular target: MBP tagged 53BP1 fragment (a.a. 1484-1603); test: BLI, 20 µM 53BP1 fragment
[8] = molecular target: MBP tagged 53BP1 fragment (a.a. 1484-1603); test: BLI, 0.5 µM 53BP1 fragment
[9] = molecular target: MBP tagged 53BP1 fragment (a.a. 1484-1603); test: BLI, 0.25 µM 53BP1 fragment
[10] = molecular target: MBP tagged 53BP1 fragment (a.a. 1484-1603); test: BLI, 5 µM 53BP1 fragment
[11] = molecular target: MBP tagged 53BP1 fragment (a.a. 1484-1603); test: BLI, 0.125 µM 53BP1 fragment

B1: - A46Q (CM49) (designed binder)
Ubv: MHHHHHHGGSGMLIFVRMLTGKMIELEVEPSDTIENVKAKIQDHEGIPPDQQRLAFAGKSLEDGRTLSDYNILKDPKKMPLLRLR
B1: binds [1].

B2: - H68M (CM52) (designed binder)
Ubv: MHHHHHHGGSGMLIFVRMLTGKMIELEVEPSDTIENVKAKIQDHEGIPPDQQRLAFQGKSLEDGRTLSDYNILKDPKKHPLLRLR
B2: binds [1].

B3: - K6R (CM44) (designed binder)
Ubv: MHHHHHHGGSGMLIFVKMLTGKMIELEVEPSDTIENVKAKIQDHEGIPPDQQRLAFQGKSLEDGRTLSDYNILKDPKKMPLLRLR
B3: binds [1].

B4: - K33H (CM48) (designed binder)
Ubv: MHHHHHHGGSGMLIFVRMLTGKMIELEVEPSDTIENVKAKIQDKEGIPPDQQRLAFQGKSLEDGRTLSDYNILKDPKKMPLLRLR
B4: binds [1].

B5: - L67K (CM51) (designed binder)
Ubv: MHHHHHHGGSGMLIFVRMLTGKMIELEVEPSDTIENVKAKIQDHEGIPPDQQRLAFQGKSLEDGRTLSDYNILKDPKLMPLLRLR
B5: binds [1].

B6: - S65P (CM50) (designed binder)
Ubv: MHHHHHHGGSGMLIFVRMLTGKMIELEVEPSDTIENVKAKIQDHEGIPPDQQRLAFQGKSLEDGRTLSDYNILKDSKKMPLLRLR
B6: binds [1].

B7: - T7M (CM45) (designed binder)
Ubv: MHHHHHHGGSGMLIFVRTLTGKMIELEVEPSDTIENVKAKIQDHEGIPPDQQRLAFQGKSLEDGRTLSDYNILKDPKKMPLLRLR
B7: binds [1].

B8: - T12M (CM46) (designed binder)
Ubv: MHHHHHHGGSGMLIFVRMLTGKTIELEVEPSDTIENVKAKIQDHEGIPPDQQRLAFQGKSLEDGRTLSDYNILKDPKKMPLLRLR
B8: binds [1].

B9: - T14E (CM47) (designed binder)
Ubv: MHHHHHHGGSGMLIFVRMLTGKMITLEVEPSDTIENVKAKIQDHEGIPPDQQRLAFQGKSLEDGRTLSDYNILKDPKKMPLLRLR
B9: binds [1].

B10: CM108 (designed binder)
Ubv: MHHHHHHGGSGMLIFVRMLTGKMIELEVYPSDTIENVKAKIQDHEGIPLDQQRLAFQGKLLEDGRTLGDYNILKDPKKMPLLRLR
B10: binds [2].

B11: CM110 (designed binder)
Ubv: MHHHHHHGGSGHLIFVRMLTGKMIELEVEPSDTIENVKAKIQDHEGIPPDQQRLAFQGKSLEDGRTLSDYNILKDPKKMPLLRLQ
B11: binds [2].

B12: CM111 (designed binder)
Ubv: MHHHHHHGGSGYLIFVRMLTGKMIELEVEPSDTIENIKAKIQDHEGIPPDQQRLAFQGKSLEDGRTLSDYNILKDPKKMPLLRMR
B12: binds [2].

B13: CM112 (designed binder)
Ubv: MHHHHHHGGSGMLIFVRMLTGKMIELEVEPSDTIEVVKAKIQDHEGIPPDEQRLAFQGKSLDDGRTLSDYNILKDPKKMPLLRLR
B13: binds [2].

B14: CM115 (designed binder)
Ubv: MHHHHHHGGSGMLIFVRMLTGKMIELMVEPSDTIEVVKAKIQDHEGIPPDEQRLAFQGKLLEDGRTLSDYNILKDPKKMPLLRLR
B14: binds [2].

B15: CM116 (designed binder)
Ubv: MHHHHHHGGSGMLIFVRMLTGKMIELEVEPSDTIENIKAKIQDHEGIPPDQYRLAFQGKLLEDGRTLGDYNILKDPKKMPLLRLR
B15: binds [2].

B16: CM117 (designed binder)
Ubv: MHHHHHHGGSGMLIFVRMLTGKMIELEVEPSDTIENVKAKICDHEGIPPDQQHLAFQGKSLEDGRTLGDYNILKDPKKMPLLRLR
B16: binds [2].

B17: CM138-DM (designed binder)
Ubv: MHHHHHHGGSGYLIFVRMLTGKMIELEVMPSDTIEVIKAKIQDHEGIPPDEQRLAFQGTSLDDGRTLGDYNLLIDPKKMLVLRMQ
notes: also called CM199
B17: binds [3].

B18: CM142-DM (CM203), His-tagged (designed binder)
chain: MHHHHHHGGSGYLIFVRMLTGKMIELEVEPSDTIENIKAKIQDHEGIPLDQQRLTFQGKLLEDGRTLSDYNLLIDPKKMLVLRMQ
B18: binds [3].

B19: CM143-DM (designed binder)
Ubv: MHHHHHHGGSGMLIFVRMLTGKMIELEVEPSDTIEVVKAKIQDHEGIPLDEQRLTFQGKLLDDGRTLSDYNLLIDPKKMLVLRLQ
notes: also called CM204
B19: binds [3].

B20: CM147-DM (designed binder)
Ubv: MHHHHHHGGSGMLIFVRMLTGKMIELEVMPSDTIEVVKAKIQDHEGIPLDQQHLTFQGTLLEDGYTLGDYNLLIDPKKMLVLRLQ
notes: also called CM208
B20: binds [3].

B21: CM158-DM (designed binder)
Ubv: MHHHHHHGGSGMLIFVRMLTGKMIELEVMPSDTIEVVKAKIQDHEGIPPDQQHLAFQGTSLEDGYTLGDYNLLIDPKKMLVLRLR
notes: also called CM211
B21: binds [3].

B22: CM114 (designed binder)
Ubv: MHHHHHHGGSGMLIFVRMLTGKMIELEVMPSDTIENVKAKIQDHEGIPPDQQRLAFQGTSLDDGRTLGDYNILKDPKKMPLLRLR
B22: binds [2].

B23: CM118 (designed binder)
Ubv: MHHHHHHGGSGMLIFVRMLTGKMIELEVMPSDTIEVVKAKIFDHEGIPPDQQHLAFQGTSLEDGYTLGDYNILKDPKKMPLLRLR
B23: binds [2].

B24: CM119 (designed binder)
Ubv: MHHHHHHGGSGMLIFVRMLTGKMIELEVMPSDTIEVVKAKIFDHEGIPPDQQHLTFQGTLLEDGYTLGDYNILKDPKKMPLLRLR
B24: binds [2].

B25: i53 K6R, His-tagged (designed binder)
chain: MHHHHHHGGSGMLIFVRTLTGKTITLEVEPSDTIENVKAKIQDKEGIPPDQQRLAFAGKSLEDGRTLSDYNILKDSKLHPLLRLR
For B25, the Response [4] was 0.275, the Kd [5] was 3930 nM and the koff [5] was 0.0644 s⁻¹. For the same binder, the kon [5] was 16400 M⁻¹ s⁻¹, the Response [6] was 0.171 and the Response [7] was 0.654. For the same binder, the Response [8] was 0.0908, the Response [9] was 0.038 and the Response [10] was 0.411. For the same binder, the Response [11] was 0.014.

B26: i53 T14E, His-tagged (designed binder)
chain: MHHHHHHGGSGMLIFVKTLTGKTIELEVEPSDTIENVKAKIQDKEGIPPDQQRLAFAGKSLEDGRTLSDYNILKDSKLHPLLRLR
Binder B26 has a Response [4] of 0.333, a Kd [5] of 2110 nM and a koff [5] of 0.0702 s⁻¹. It also gave a kon [5] of 33300 M⁻¹ s⁻¹, a Response [6] of 0.224 and a Response [7] of 0.666. For the same binder, the Response [8] was 0.123, the Response [9] was 0.0571 and the Response [10] was 0.462. The Response [11] was 0.0223.

B27: i53 K33A, His-tagged (designed binder)
chain: MHHHHHHGGSGMLIFVKTLTGKTITLEVEPSDTIENVKAKIQDAEGIPPDQQRLAFAGKSLEDGRTLSDYNILKDSKLHPLLRLR
For B27, the Response [4] was 0.48, the Kd [5] was 2100 nM and the koff [5] was 0.062 s⁻¹. For the same binder, the kon [5] was 29500 M⁻¹ s⁻¹, the Response [6] was 0.325 and the Response [7] was 0.96. The Response [8] was 0.185, the Response [9] was 0.0935 and the Response [10] was 0.657. The Response [11] was 0.0409.

B28: i53 A46Q, His-tagged (designed binder)
chain: MHHHHHHGGSGMLIFVKTLTGKTITLEVEPSDTIENVKAKIQDKEGIPPDQQRLAFQGKSLEDGRTLSDYNILKDSKLHPLLRLR
For B28, the Response [4] was 0.5, the Kd [5] was 2200 nM and the koff [5] was 0.0496 s⁻¹. It also gave a kon [5] of 22600 M⁻¹ s⁻¹, a Response [6] of 0.348 and a Response [7] of 1.01. For the same binder, the Response [8] was 0.194, the Response [9] was 0.102 and the Response [10] was 0.7. It also gave a Response [11] of 0.0512.

B29: i53 K63I, His-tagged (designed binder)
chain: MHHHHHHGGSGMLIFVKTLTGKTITLEVEPSDTIENVKAKIQDKEGIPPDQQRLAFAGKSLEDGRTLSDYNILIDSKLHPLLRLR
For B29, the Response [4] was 0.374, the Kd [5] was 2870 nM and the koff [5] was 0.0546 s⁻¹. The kon [5] was 19000 M⁻¹ s⁻¹, the Response [6] was 0.242 and the Response [7] was 0.797. For the same binder, the Response [8] was 0.14, the Response [9] was 0.0623 and the Response [10] was 0.526. For the same binder, the Response [11] was 0.0324.

B30: i53 S65P, His-tagged (designed binder)
chain: MHHHHHHGGSGMLIFVKTLTGKTITLEVEPSDTIENVKAKIQDKEGIPPDQQRLAFAGKSLEDGRTLSDYNILKDPKLHPLLRLR
Binder B30 has a Response [4] of 0.361, a Kd [5] of 2090 nM and a koff [5] of 0.0514 s⁻¹. The kon [5] was 24600 M⁻¹ s⁻¹, the Response [6] was 0.252 and the Response [7] was 0.716. For the same binder, the Response [8] was 0.143, the Response [9] was 0.069 and the Response [10] was 0.508. The Response [11] was 0.0384.
